Laboratory results: publication PMC8121856
No constants are given. Whether binding was seen depends on the method and setting. In cells and extracts the contact can be indirect. Some entries that bind do so weakly or less than the wild type. Sequences can lack the tags named with a protein.

Target: T1, Flag-tagged Shc1 (UniProt P29353)
T1 sequence: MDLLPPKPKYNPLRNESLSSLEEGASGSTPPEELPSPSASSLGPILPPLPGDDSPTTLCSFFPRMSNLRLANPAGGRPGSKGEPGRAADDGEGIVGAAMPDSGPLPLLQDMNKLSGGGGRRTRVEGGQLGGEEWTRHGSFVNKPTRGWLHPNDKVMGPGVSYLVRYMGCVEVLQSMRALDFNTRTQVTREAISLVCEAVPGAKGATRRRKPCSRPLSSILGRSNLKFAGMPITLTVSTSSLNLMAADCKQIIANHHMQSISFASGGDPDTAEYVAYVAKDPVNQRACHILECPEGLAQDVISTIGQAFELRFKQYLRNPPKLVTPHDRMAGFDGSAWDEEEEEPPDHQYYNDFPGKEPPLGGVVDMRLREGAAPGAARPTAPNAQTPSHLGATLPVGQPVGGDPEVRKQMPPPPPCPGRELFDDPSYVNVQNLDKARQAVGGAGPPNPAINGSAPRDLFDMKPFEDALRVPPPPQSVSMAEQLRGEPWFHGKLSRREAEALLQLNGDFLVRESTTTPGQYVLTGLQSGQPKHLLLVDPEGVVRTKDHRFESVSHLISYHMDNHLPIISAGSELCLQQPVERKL
Assay: co-IP; Flag-Shc1 with HA-SHCBP1 in SNU-216 cells; anti-Flag M2 agarose, 4 °C; 50 mM Tris-HCl pH 7.4, 150 mM NaCl, 1 mM EDTA, 0.2% TritonX-100; cells treated with 100 ng/mL EGF for the indicated times and/or trastuzumab

binding: binds
B1: HA-tagged SHCBP1 (protein, UniProt Q8NEM2 1-672)
chain: MADGSLTGGGLEAAAMAPERMGWAVEQELASLEKGLFQDEDSCSDCSYRDKPGSSLQSFMPEGKTFFPEIFQTNQLLFYERFRAYQDYILADCKASEVQEFTAEFLEKVLEPSGWRAVWHTNVFKVLVEITDVDFAALKAVVRLAEPYLCDSQVSTFTMECMKELLDLKEHRLPLQELWVVFDDSGVFDQTALAIEHVRFFYQNIWRSWDEEEEDEYDYFVRCVEPRLRLHYDILEDRVPSGLIVDYHNLLSQCEESYRKFLNLRSSLSNCNSDSEQENISMVEGLKLYSEMEQLKQKLKLIENPLLRYVFGYQKNSNIQAKGVRSSGQKITHVVSSTMMAGLLRSLLTDRLCQEPGEEEREIQFHSDPLSAINACFEGDTVIVCPGHYVVHGTFSIADSIELEGYGLPDDIVIEKRGKGDTFVDCTGADIKISGIKFVQHDAVEGILIVHRGKTTLENCVLQCETTGVTVRTSAEFLMKNSDLYGAKGAGIEIYPGSQCTLSDNGIHHCKEGILIKDFLDEHYDIPKISMVNNIIHNNEGYGVVLVKPTIFSDLQENAEDGTEENKALKIQTSGEPDVAERVDLEELIECATGKMELCARTDPSEQVEGNCEIVNELIAASTQKGQIKKKRLSELGITQADDNLMSQEMFVGIVGNQFKWNGKGSFGTFLF
